Measured values: the supplement of paper PMC12632987
Over roughly 4,500 sequences, “median log2 fold change of GCK-ALFA target abundance (FLAG IP / Myc IP barcode read proportion)” has its median near 0.078; the lowest 2% begin near -0.6. Some of the results follow.

B1: GBRAP_78_6675 (protein)
chain: KVEEELDKALEHLDKAAKILNKMNTEEALEILGKVIDVRETVWEAHEGEADLKELEEALKELKEALKEVKKIDKEEAKEAAKELEKAIEHLEKAIKLLKE
B2: GBRAP_52_5970 (protein)
chain: MRERARREAEELLELKRRGDEEGLREKAREIARTFDDEEIRLLAEALAEIVEEGDLEEAEIALEVAIVLADVLEEEGRDPRLASDLLGLVARAAYKLELK
B3: GBRAP_186_5378 (protein)
chain: EEELEEIRDEIIDELEAEGYTVIVVDDVYEFTEENKESIKRDVEAVTELAKETGKKYALVIPFKGTEEELEEAKKFIEELDKEAKAEGGTVVKLAGLVTP
B4: GBRAP_128_3464 (protein)
chain: SVEEAVKRTKELLEEVKKADLETARKLFEELAAELTTLSLEEVEAVVEVIEERLPELSAEKLEILAEVFRAALPKFDPEKRALIAEVISEALLEAEEKEE
B5: GBRAP_26_5449 (protein)
chain: MEELLEEFREKLKKLADELLDPETAALLKVEVDNIVALAEMELEEANGDLEKMLAVVDQMLKDLEQALDDLGVPEDVKKKLLEAAKEAAEKIKEALKKES
B6: GBRAP_55_6439 (protein)
chain: MTDEEIREEAIEDLSDMLKLSYEDKDTFVKLAEALAAELEPGESVTVEIELEREEDLEIALASANAAKKALEAKGYEVKIEVKKNEDGTYVLTLTITKPK
B7: GBRAP_96_7098 (protein)
chain: ELEKAKKIVKEALKALDTDEEKAKELAKELLKFPVEVIVKALVEEVKTPEEAYKLTKILLSLGDPKAEEVALEFAEESDGERSKAVIEAMKEYEKEKEAA
B8: GBRAP_128_3290 (protein)
chain: SAEERRARYRARLRAMLALSPEEFRAALLELALEAAAEGLEAVELFVEALLELAPEMTVEQLRAAAEALDEARESVDPESAALLADAADDLLLRAEELEE

Each binder was assayed against GABARAP, O95166 (assay: median log2 fold change of GCK-ALFA target abundance (FLAG IP / Myc IP barcode read proportion) (log2 ratio); each designed protein is fused to an ALFA-tag nanobody in HEK293 cells to bring the named protein to FLAG-tagged glucokinase (GCK); Myc marks an untargeted standard; higher = target protein stabilised (more abundant)). Details: target protein: 3xFLAG-MCP-GCK-ALFA reporter; HEK293 landing pad (RPLP).
Procedure, shortened: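 Binders fused to an ALFA nanobody were recombined as a library into HEK293 landing-pad cells, which were induced with 2 μg mL^−1 doxycycline and then transfected to express a FLAG-tagged target and a Myc-tagged standard. After 48 h, circular RNA barcodes recovered by anti-FLAG and anti-Myc immunoprecipitation of lysates were reverse transcribed, amplified and sequenced. Each binder's target abundance is the median log2 ratio of FLAG to Myc barcode read proportions, from barcodes present at ≥10^−7 in both replicates, binders carrying ≥3 barcodes per replicate, a 10^−6 pseudocount and pooled replicates.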

GABARAP, O95166, sequence (O95166 whole entry, the tested form may be a part): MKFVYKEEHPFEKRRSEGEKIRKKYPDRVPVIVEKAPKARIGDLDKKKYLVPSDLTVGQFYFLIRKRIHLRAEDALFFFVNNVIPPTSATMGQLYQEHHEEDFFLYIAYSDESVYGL

Binder	median log2 fold change
B1	0.337
B2	-0.387
B3	0.149
B4	0.24
B5	0.226
B6	0.261
B7	0.273
B8	-0.327
